According to PubChem BioAssay AID2675 (National Center for Advancing Translational Sciences (NCATS), 2010):
In all, about 280,000 compounds went through this assay and about 100 (0.036%) were called active. Inconclusive results, whose numbers are uncertain, are shown with a selection of clear calls. The call rests on the fitted dose curve; in most records, active means well fitted inhibition curve with a large enough effect in the signal ratio, with a control signal flat (not every such curve was filed as active); inconclusive means small, poorly fitted or top-dose-only effect, or effect the other way, or a change in a side signal; inactive means no such curve, though single readings can be large or run the other way; the % refers to the signal ratio. Potencies beside an inconclusive call are fits to weak or partial responses and may not hold up. “Side channel” marks fits to a control or component signal instead of the main read-out.

biological target: Muscleblind-like protein 1 (Homo sapiens) (UniProt Q9NR56); assay: qHTS Assay for Inhibitors of MBNL1-poly(CUG) RNA binding; settings: TR-FRET MBNL1-His/biotin-(CUG)12 binding, 665/545 ratio; activity change, negative = inhibition: at 57.5 µM (top of the series)
Sequence of UniProt Q9NR56 (Q9NR56 whole entry, looked up): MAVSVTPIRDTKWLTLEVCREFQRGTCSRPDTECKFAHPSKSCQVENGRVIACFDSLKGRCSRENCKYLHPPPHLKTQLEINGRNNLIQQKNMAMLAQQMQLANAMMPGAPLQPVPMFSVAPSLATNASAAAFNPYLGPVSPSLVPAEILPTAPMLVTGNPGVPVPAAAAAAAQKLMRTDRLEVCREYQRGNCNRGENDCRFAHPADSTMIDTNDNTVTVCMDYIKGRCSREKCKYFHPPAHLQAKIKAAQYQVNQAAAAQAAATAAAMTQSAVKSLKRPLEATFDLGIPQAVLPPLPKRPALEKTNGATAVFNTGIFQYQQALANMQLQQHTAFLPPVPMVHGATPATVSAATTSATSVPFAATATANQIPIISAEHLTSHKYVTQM
Procedure, shortened: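 TR-FRET readout: Ex 340 nm, 665/545 nm emission ratio, normalized to buffer-only (basal) and MBNL1-(CUG)12 controls. Complex of MBNL1-His with Biotin-(CUG)12, compounds 92 nM–58 uM, incubated 60 min at room temperature.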
On the % scale 0 is the no-effect control and ±100 the full control effect; potency means the concentration at half of the fitted maximal effect; tags describe the fitted curve by direction and shape or compound fluorescence and quenching.

Row | SMILES | Potency | activity change, negative = inhibition
1 | COC(=O)c1sccc1NC(=O)c1csc(C)c1 | inconclusive: 0.631 µM [quencher, side channel, single point] | 
2 | Cc1cc(C)cc(NC(=O)Cc2ccc(-n3cccc3)cc2)c1 | inconclusive: 28.2 µM [fluorescent, side channel, partial curve] | 
3 | O=C(CCC1CCCC1)Nc1ccc([N+](=O)[O-])cn1 | inconclusive: 31.6 µM [quencher, side channel, single point] | 
4 | CCn1c(C(=O)N2CCC(C(=O)NCCCSC3CCCCC3)CC2)cc2sccc21 |  | inactive: -11.3%
5 | O=C1C(=O)N(CCN2CCOCC2)C(c2ccccn2)/C1=C(/O)c1ccc(F)cc1 (stereo unspecified) | inconclusive: 12.6 µM [quencher, side channel, partial curve] | 
6 | CCOc1ccc(OCC(=O)Nc2nccs2)cc1 |  | inactive: -2.42%
7 | COc1ccc(C(C)=O)cc1CC(=O)N(Cc1ccccc1)c1ccccc1 |  | inactive: 3.4%
8 | O=C(Cc1ccc([N+](=O)[O-])cc1)N1CCCCCC1 | inconclusive: 28.2 µM [quencher, side channel, partial curve] | 
9 | COCCCNC(=O)c1ccc2nc3ccccc3c(=O)n2c1 | inconclusive: 3.55 µM [quencher, side channel, full curve] | 
10 | O=C(COc1cccnc1[N+](=O)[O-])Nc1ccc(N2CCOCC2)cc1 | inconclusive: 11.2 µM [quencher, side channel, partial curve] | 
11 | Cc1cc(Cl)ccc1NC(=S)NCCCO |  | inactive: 7.4%
12 | COc1ccc2cc3cc(C(=O)N4CCN(Cc5ccc6c(c5)OCO6)CC4)oc3nc2c1 | inconclusive: 3.55 µM [quencher, side channel, single point] | 
13 | COc1ccc(NS(=O)(=O)c2ccc3oc(=O)c4[nH]c(=O)c(=O)n(C)c4c3c2)cc1 | inconclusive: 8.91 µM [quencher, side channel, full curve] | 
14 | O=C(NCC1CCCCC1)c1cccc([N+](=O)[O-])c1 | inconclusive: 12.6 µM [quencher, side channel, partial curve] | 
15 | CCCCN=C(Nc1ccc(Cl)cc1)c1cccnc1 | inconclusive: 1.26 µM [quencher, side channel, full curve] | 
16 | COC(=O)c1sc(NC(=O)c2cccc([N+](=O)[O-])c2)c(C(N)=O)c1C | inconclusive: 2.24 µM [quencher, side channel, single point] | 
17 | CCN1CCN(c2nc3c(C)cccn3c(=O)c2/C=C(\C#N)S(=O)(=O)c2ccc(C)cc2)CC1 | inconclusive: 11.2 µM [quencher, side channel, partial curve] | 
18 | CC(=O)C1=C(C)NC(=O)NC1c1cccc([N+](=O)[O-])c1O (stereo unspecified) | inconclusive: 25.1 µM [quencher, side channel, single point] | 
19 | CCN1/C(=C/c2ccc3ccccc3[n+]2CC)C=Cc2ccccc21 | inconclusive: 3.98 µM [quencher, side channel, partial curve] | 
20 | O=S(=O)(NCc1cc(-c2ccccc2Cl)no1)c1ccc(Cl)cc1 |  | inactive: 12.5%
21 | O=C(CSc1n[nH]c(-c2ccccc2)n1)Nc1ncccn1 |  | inactive: 8.09%

Row | SMILES | Potency | activity change, negative = inhibition
22 | Cc1cccn2c(=O)c(C=O)c(N3CCN(c4ccccc4)CC3)nc12 | inconclusive: 31.6 µM [quencher, side channel, single point] | 
23 | N=C(N)N=Nc1c(O)[nH]c2ccc(Br)cc12 | inconclusive: 15.8 µM [quencher, side channel, partial curve] | 
24 | CCOC(=O)Cc1csc(N/N=C/c2ccccc2)n1 | inconclusive: 5.01 µM [quencher, side channel, full curve, poor fit] | 
25 | O=S(=O)(c1ccc(Cl)cc1)c1cc(O)ccc1O |  | inactive: -7.46%
26 | Cc1[nH]nc2c1C(c1ccc(-c3ccccc3C#N)o1)C(C#N)=C(N)O2 (stereo unspecified) | inconclusive: 20 µM [quencher, side channel, partial curve] | 
27 | CCCc1noc(-c2cccc([N+](=O)[O-])c2)n1 | inconclusive: 15.8 µM [quencher, side channel, partial curve] | 
28 | CCNc1cc(S(=O)(=O)C(F)(F)F)ccc1N |  | inconclusive: -15.4% [phenotype inactive]
29 | Cc1ccccc1C(=O)N=c1ccn(-c2nc3ccccc3nc2NS(=O)(=O)c2ccc(F)cc2)cc1 | inconclusive: 6.31 µM [quencher, side channel, full curve] | 
30 | CCN(c1ccccc1)S(=O)(=O)c1ccc(Oc2ccc(-n3ccnc3)cc2)nc1 | inconclusive: 31.6 µM [quencher, single point] | 
31 | COc1ccccc1/C=C/C(=O)OCC(=O)NNC(=O)c1ccccc1 | inconclusive: 39.8 µM [quencher, single point] | 
32 | O=C(CSc1n[nH]c(=O)[nH]c1=O)N/N=C/C=C/c1ccccc1 | inconclusive: 15.8 µM [quencher, side channel, partial curve] | 
33 | COc1cc([N+](=O)[O-])ccc1NC(=O)C[n+]1ccccc1C | inconclusive: 14.1 µM [quencher, side channel, partial curve] | 
34 | Cc1ccc(Nc2nc(N)nc(CN3CCN(c4ccccc4)CC3)n2)cc1Cl |  | inactive: -0.234%
35 | CCCn1c(=O)c2[nH]c(-c3ccc(S(=O)(=O)O)cc3)nc2n(CCC)c1=O | inconclusive: 11.2 µM [quencher, side channel, partial curve] | 
36 | COC(=O)c1ccc(Oc2nc(NC(C)C)nc(NC(C)C)n2)cc1 |  | inactive: 9.43%
37 | O=C(Nc1ccc(N2CCCC2)cc1)c1cc([N+](=O)[O-])ccc1N1CCOCC1 | inconclusive: 3.98 µM [quencher, side channel, full curve, poor fit] | 
38 | CCCn1c(C)cs/c1=N\C(=S)Nc1ccccc1 |  | inactive: 96.7%
39 | Cc1ccc(Nc2nc(CSc3nnc(-c4ccc(F)cc4)n3C)cs2)cc1 |  | inactive: -2.71%
40 | COc1cc(C2NC(=O)NC(c3ccccc3)=C2C(C)=O)cc([N+](=O)[O-])c1O (stereo unspecified) | inconclusive: 14.1 µM [quencher, side channel, partial curve] | 
41 | CC(NS(=O)(=O)c1ccc([N+](=O)[O-])cc1)C(=O)NN (stereo unspecified) | inconclusive: 12.6 µM [quencher, side channel, partial curve] | 
42 | [O-]c1c[n+](-c2ccc(-[n+]3cc([O-])on3)cc2)no1 | inconclusive: 7.94 µM [quencher, side channel, partial curve] | 

Row | SMILES | Potency | activity change, negative = inhibition
43 | CCOc1ccc(/C=N/NC(=O)c2[nH]ncc2Br)c(O)c1 |  | inactive: 17.8%
44 | COCCCn1c(C(=O)N2CC(C)OC(C)C2)cc2c(=O)n3ccccc3nc21 (stereo unspecified) | inconclusive: 39.8 µM [quencher, single point] | 
45 | COc1ccccc1N=c1oc2c(OC)cccc2cc1C(=O)NCc1ccco1 | inconclusive: 25.1 µM [quencher, side channel, partial curve, poor fit] | 
46 | CNc1oc(-c2ccc(F)cc2)nc1S(=O)(=O)c1ccccc1 | inconclusive: 35.5 µM [fluorescent, side channel, partial curve] | 
47 | CCN(CC)CCCNC(=O)CSc1nc(-c2cccs2)cc(C(F)(F)F)n1 | inconclusive: 28.2 µM [quencher, side channel, single point] | 
48 | CC(NC(=O)COc1cccnc1[N+](=O)[O-])c1ccc(Cl)cc1 (stereo unspecified) | inconclusive: 15.8 µM [quencher, side channel, partial curve] | 
49 | O=[N+]([O-])c1cccnc1S(=O)(=O)c1ccccc1 | inconclusive: 14.1 µM [quencher, side channel, partial curve] | 
50 | CC(C)(C)C(=O)Nc1ccc(-c2csnn2)cc1 |  | inactive: -6.19%
51 | COc1cc([N+](=O)[O-])ccc1N1C(=O)C2C3C=CC(C4CC34)C2C1=O (stereo unspecified) | inconclusive: 28.2 µM [quencher, side channel, partial curve] | 
52 | O=[N+]([O-])c1ccc(NCCCO)c(C(F)(F)F)c1 | inconclusive: 17.8 µM [quencher, side channel, partial curve] | 
53 | COc1ccc(-n2c(CN3CCN(c4ccccc4OC)CC3)nc3ccc([N+](=O)[O-])cc3c2=O)c(OC)c1 | inconclusive: 7.08 µM [quencher, side channel, partial curve] | 
54 | O=C(CCNS(=O)(=O)c1cccc2nsnc12)NCc1ccccc1 | inconclusive: 20 µM [quencher, side channel, partial curve] | 
55 | COC(=O)CSc1[nH]c2cc(C)ccc2c1[N+](=O)[O-] | inconclusive: 14.1 µM [quencher, side channel, partial curve] | 
56 | CCOc1ccc2nc(COC(=O)c3cccs3)c(C(=O)c3ccccc3)[n+]([O-])c2c1 | inconclusive: 0.0355 µM [fluorescent, side channel, full curve] | 
57 | COc1ccc(/C=N\NC(=O)c2ccccc2Br)cc1COc1ccc(F)cc1 |  | inactive: 5.94%
58 | COc1ccc(CCC(=O)N2CCN(C(=O)c3ccccc3)CC2)cc1 |  | inactive: -7.25%
59 | CC(C)Oc1ccc(/C(O)=C2/C(=O)C(=O)N(Cc3cccnc3)C2c2ccco2)cc1 (stereo unspecified) | inconclusive: 28.2 µM [quencher, side channel, single point] | 
60 | COc1cc(CCN2C(=O)c3cccc4cccc(c34)C2=O)c(S(=O)(=O)NCCCO)cc1OC | inconclusive: 14.1 µM [quencher, side channel, partial curve] | 
61 | CCN(C(=O)COC(=O)c1cc(-c2cccs2)nc2ccccc12)C1CCS(=O)(=O)C1 (stereo unspecified) | inconclusive: 14.1 µM [quencher, side channel, partial curve] | 
